This note sets out measurements from paper PMC9044032, “OsbZIP47 Is an Integrator for Meristem Regulators During Rice Plant Growth and Development” (Frontiers in Plant Science, 2022).

Protein sequences, listed by entry. Tags and fused reporters are not part of them.
UniProt Q6Q9I2: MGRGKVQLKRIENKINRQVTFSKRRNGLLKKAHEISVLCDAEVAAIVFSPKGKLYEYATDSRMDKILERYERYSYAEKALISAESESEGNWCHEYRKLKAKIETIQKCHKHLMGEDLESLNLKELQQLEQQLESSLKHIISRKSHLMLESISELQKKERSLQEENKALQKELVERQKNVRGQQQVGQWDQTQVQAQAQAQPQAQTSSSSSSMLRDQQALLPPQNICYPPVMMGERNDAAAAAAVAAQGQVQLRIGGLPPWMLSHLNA
UniProt Q10PZ9: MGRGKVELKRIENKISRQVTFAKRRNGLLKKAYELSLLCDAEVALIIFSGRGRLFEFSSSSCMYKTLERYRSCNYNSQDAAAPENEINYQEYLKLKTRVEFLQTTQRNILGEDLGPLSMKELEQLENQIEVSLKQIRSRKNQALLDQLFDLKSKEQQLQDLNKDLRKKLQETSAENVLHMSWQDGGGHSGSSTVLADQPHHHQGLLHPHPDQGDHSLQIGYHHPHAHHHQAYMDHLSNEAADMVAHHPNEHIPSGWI

Read-outs that look alike come from different tables or passages of the source. Results are given in words; binding and its absence hold for the method and conditions named. For some assays here: Binding seen in cells or lysates may run through a third protein. Some results given as binding are weak or reduced against the parent protein; the word gives no strength. Tags and fused reporters may be left off the sequences shown.

Assay [1] concerns the target T1, OsbZIP47ΔC (C-terminal truncated OsbZIP47 lacking 186-385 amino acids), Gal4 BD fusion (rice (Oryza sativa)) (UniProt Q5Z6N9).
T1 sequence: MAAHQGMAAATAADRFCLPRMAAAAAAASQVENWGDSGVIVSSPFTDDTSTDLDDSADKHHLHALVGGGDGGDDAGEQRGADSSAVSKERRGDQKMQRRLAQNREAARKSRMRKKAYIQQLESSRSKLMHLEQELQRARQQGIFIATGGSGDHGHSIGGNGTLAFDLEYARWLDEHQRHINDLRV
Put plainly: two-hybrid; Gal4 BD-OsbZIP47ΔC as bait (pGBDUC1), preys fused to GAL4 AD (pGADC1), yeast pJ69-4A; serial dilution spotting on SD/-Leu-Ura-His + 10 mM 3AT, growth after five days at 30°C; ONPG / X-gal quantitative assay.

In assay [2] the target is T2, OsbZIP47ΔC-cYFP fusion protein (rice (Oryza sativa)) (UniProt Q5Z6N9).
T2 sequence: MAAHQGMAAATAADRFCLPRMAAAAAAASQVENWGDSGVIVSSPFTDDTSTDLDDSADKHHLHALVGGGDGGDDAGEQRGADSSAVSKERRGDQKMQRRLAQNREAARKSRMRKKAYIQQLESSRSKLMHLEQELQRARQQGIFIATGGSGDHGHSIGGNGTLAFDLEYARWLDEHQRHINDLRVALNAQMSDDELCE
Put plainly: split reporter; BiFC: cYFP and nYFP fusions transiently co-expressed in onion (Allium cepa) epidermal cells by Agrobacterium infiltration; 25°C in dark for 48 h; confocal detection of YFP.

The target in assay [3] is T1, OsbZIP47ΔC (C-terminal truncated OsbZIP47 lacking 186-385 amino acids), Gal4 BD fusion (rice (Oryza sativa)). As to the kind of experiment: two-hybrid; Gal4 BD-OsbZIP47ΔC as bait (pGBDUC1), preys fused to GAL4 AD (pGADC1), yeast pJ69-4A; serial dilution spotting on SD/-Leu-Ura-His + 10 mM 3AT, growth after five days at 30°C; ONPG / X-gal quantitative assay. This is another data set of the same source.

As to “OsMADS15, GAL4 AD fusion (from UniProt Q6Q9I2 1-267)”, the binding entry in assay [1] was “binds weakly”.

Take “OsMADS1-nYFP (from UniProt Q10PZ9 1-257)”: the binding result in assay [2] is “binds”.

B1: RICE HOMEOBOX1 (OSH1), GAL4 AD fusion (protein, UniProt P46609 1-361)
chain: MEEISHHFGVVGASGVHGGHQHQHHHHPWGSSLSAIVAPPPPPQLQQQQTQAGGMAHTPLTLNTAAAAVGNPVLQLANGSLLDACGKAKEASASASYAADVEAIKAKIISHPHYSSLLAAYLDCQKVGAPPEVAARLTAVAQDLELRQRTALGVLGAATEPELDQFMEAYHEMLVKYREELTRPLQEAMEFLRRVETQLNTLSISGRSLRNILSSGSSEEDQEGSGGETELPEIDAHGVDQELKHHLLKKYSGYLSSLKQELSKKKKKGKLPKDARQQLLNWWELHYKWPYPSESQKVALAESTGLDLKQINNWFINQRKRHWKPSDEMQFVMMDGYHPTNAAAFYMDGHFINDGGLYRLG
As for B1, the binding entry in assay [3] is on record as “binds”.

B2: OSH1 nYFP (protein, UniProt P46609 1-361)
chain: B1 chain
Regarding B2, the binding entry in assay [2] is “binds”.

B3: OsH15, GAL4 AD fusion (protein, UniProt O80416 1-355)
chain: MDQSFGNLGGGGGAGGSGKAAASSFLQLPLSTAAAATAYYGTPLALHQAAAAAGPSQYHGHGHPHHGGGHHHSKHGGAGGGEISAAEAESIKAKIMAHPQYSALLAAYLDCQKVGAPPEVLERLTATAAKLDARPPGRHDARDPELDQFMEAYCNMLAKYREELTRPIDEAMEFLKRVESQLDTIAGGAHGGGAGSARLLLADGKSECVGSSEDDMDPSGRENEPPEIDPRAEDKELKFQLLKKYSGYLSSLRQEFSKKKKKGKLPKEARQKLLHWWELHYKWPYPSETEKIALAESTGLDQKQINNWFINQRKRHWKPSEDMPFVMMEGFHPQNAAALYMDGPFMADGMYRLGS
Consider B3, for which the binding result in assay [3] was “binds weakly”.

B4: OsMADS2, GAL4 AD fusion (protein, UniProt Q40702 1-209)
chain: MGRGKIEIKRIENSTNRQVTFSKRRSGILKKAREISVLCDAEVGVVIFSSAGKLYDYCSPKTSLSRILEKYQTNSGKILWDEKHKSLSAEIDRIKKENDNMQIELRHLKGEDLNSLQPKELIMIEEALDNGIVNVNDKLMDHWERHVRTDKMLEDENKLLAFKLHQQDIALSGSMRDLELGYHPDRDFAAQMPITFRVQPSHPNLQENN
As for B4, the binding entry in assay [3] is listed as “no binding”.

B5: RICE FLORICULA/LEAFY (RFL), GAL4 AD fusion (protein, UniProt Q0JAI1 1-389)
chain: MDPNDAFSAAHPFRWDLGPPAPAPVPPPPPPPPPPPPANVPRELEELVAGYGVRMSTVARISELGFTASTLLAMTERELDDMMAALAGLFRWDLLLGERFGLRAALRAERGRLMSLGGRHHGHQSGSTVDGASQEVLSDEHDMAGSGGMGDDDNGRRMVTGKKQAKKGSAARKGKKARRKKVDDLRLDMQEDEMDCCDEDGGGGSESTESSAGGGGGERQREHPFVVTEPGEVARAKKNGLDYLFHLYEQCRLFLLQVQSMAKLHGHKSPTKVTNQVFRYAKKVGASYINKPKMRHYVHCYALHCLDEEASDALRRAYKARGENVGAWRQACYAPLVDISARHGFDIDAVFAAHPRLAIWYVPTRLRQLCHQARSSHAAAAAALPPPLF
Take B5: the binding entry in assay [3] is “binds”.

B6: RFL-nYFP (protein, UniProt Q0JAI1 1-389)
chain: B5 chain
As for B6, in assay [2], the binding entry is “binds”.
